# Data as given in the supplement of paper PMC8728848.
# Some of the results follow.
# B1: Gz-CVNH (Gibberella zeae) (protein)
# chain: MGSSHHHHHHSSGLVPRGSHMGNFHESSNNIWLEDGHILHAECGNGEGDYVESTLDLDYYIGNDDGSFSWGGENFSGSASNITLDIEGDDNIPVLRAELNPMDGDPVEANVNLSERIGNDCGTLIFLA
# Legend:
# Experiment in all cases: glycan array binding signal (z-score within array); higher = stronger binding
# Settings in all cases: glycan notation: IUPAC condensed, linker removed
# [1] = target: GlcNAc(b1-3)Gal(b1-4)Glc
# Procedure, shortened: (§1)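 The Consortium for Functional Glycomics database supplied 3228 glycan arrays, of which those lacking an available protein sequence were dropped. The binding signal, a within-array Z-score, was averaged across arrays of the same protein sequence and across linkers. Negative scores can be read as non-binding.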
# [2] = target: GlcNAc(b1-3)Gal(b1-4)GlcNAc
# Procedure, shortened: as §1
# [3] = target: GlcNAc(b1-3)Gal(b1-4)GlcNAc(b1-3)Gal(b1-4)GlcNAc
# Procedure, shortened: as §1
# [4] = target: GlcNAc(b1-3)GalNAc
# Procedure, shortened: as §1
# [5] = target: GlcNAc(b1-3)Man
# Procedure, shortened: as §1
# [6] = target: GlcNAc(b1-3)[GlcNAc(b1-4)][GlcNAc(b1-6)]GlcNAc
# Procedure, shortened: as §1
# [7] = target: GlcNAc(b1-3)[GlcNAc(b1-6)]Gal(b1-4)GlcNAc
# Procedure, shortened: as §1
# [8] = target: GlcNAc(b1-3)[GlcNAc(b1-6)]GalNAc
# Procedure, shortened: as §1
# [9] = target: GlcNAc(b1-4)Gal(b1-4)GlcNAc
# Procedure, shortened: as §1
# [10] = target: GlcNAc(b1-4)GlcNAc
# Procedure, shortened: as §1
# [11] = target: GlcNAc(b1-4)GlcNAc(b1-4)GlcNAc
# Procedure, shortened: as §1
# [12] = target: GlcNAc(b1-4)GlcNAc(b1-4)GlcNAc(b1-4)GlcNAc(b1-4)GlcNAc
# Procedure, shortened: as §1
# [13] = target: GlcNAc(b1-4)GlcNAc(b1-4)GlcNAc(b1-4)GlcNAc(b1-4)GlcNAc(b1-4)GlcNAc
# Procedure, shortened: as §1
# [14] = target: GlcNAc(b1-4)[GlcNAc(b1-6)]GalNAc
# Procedure, shortened: as §1
# [15] = target: GlcNAc(b1-6)Gal(b1-4)GlcNAc
# Procedure, shortened: as §1
# [16] = target: GlcNAc(b1-6)GalNAc
# Procedure, shortened: as §1
# [17] = target: GlcNAc3Prop(b1-4)GlcNAc
# Procedure, shortened: as §1
# [18] = target: GlcNAc6S(b1-3)Gal(b1-4)GlcNAc
# Procedure, shortened: as §1
# [19] = target: Kdn(a2-3)Gal(b1-3)GalNAc
# Procedure, shortened: as §1
# [20] = target: Kdn(a2-3)Gal(b1-3)GlcNAc
# Procedure, shortened: as §1
# [21] = target: Kdn(a2-3)Gal(b1-4)Glc
# Procedure, shortened: as §1
# [22] = target: Kdn(a2-3)Gal(b1-4)GlcNAc
# Procedure, shortened: as §1
# [23] = target: Kdn(a2-3)Gal(b1-4)[Fuc(a1-3)]GlcNAc
# Procedure, shortened: as §1
# [24] = target: Kdn(a2-6)Gal(b1-4)GlcNAc
# Procedure, shortened: as §1
# [25] = target: Man(a1-2)Man(a1-2)Man(a1-3)Man
# Procedure, shortened: as §1
# [26] = target: Man(a1-2)Man(a1-2)Man(a1-6)[Man(a1-3)]Man
# Procedure, shortened: as §1
# [27] = target: Man(a1-2)Man(a1-3)Man
# Procedure, shortened: as §1
# [28] = target: Man(a1-2)Man(a1-3)[Man(a1-2)Man(a1-6)]Man
# Procedure, shortened: as §1
# [29] = target: Man(a1-2)Man(a1-3)[Man(a1-2)Man(a1-6)]Man(a1-6)[Man(a1-2)Man(a1-2)Man(a1-3)]Man
# Procedure, shortened: as §1
# [30] = target: Man(a1-2)Man(a1-3)[Man(a1-2)Man(a1-6)]Man(a1-6)[Man(a1-2)Man(a1-2)Man(a1-3)]Man(b1-4)GlcNAc(b1-4)GlcNAc
# Procedure, shortened: as §1
# [31] = target: Man(a1-2)Man(a1-3)[Man(a1-6)]Man(a1-6)[Man(a1-2)Man(a1-3)]Man(b1-4)GlcNAc(b1-4)GlcNAc
# Procedure, shortened: as §1
# [32] = target: Man(a1-2)Man(a1-6)[Man(a1-3)]Man(a1-6)[Man(a1-2)Man(a1-2)Man(a1-3)]Man
# Procedure, shortened: as §1
# [33] = target: Man(a1-2)Man(a1-6)[Man(a1-3)]Man(a1-6)[Man(a1-2)Man(a1-2)Man(a1-3)]Man(b1-4)GlcNAc(b1-4)GlcNAc
# Procedure, shortened: as §1
# [34] = target: Man(a1-3)[Man(a1-6)]Man
# Procedure, shortened: as §1
# [35] = target: Man(a1-3)[Man(a1-6)]Man(a1-6)[Man(a1-2)Man(a1-3)]Man(b1-4)GlcNAc(b1-4)GlcNAc
# Procedure, shortened: as §1
# [36] = target: Man(a1-3)[Man(a1-6)]Man(a1-6)[Man(a1-3)]Man
# Procedure, shortened: as §1
# [37] = target: Man(a1-3)[Man(a1-6)]Man(a1-6)[Man(a1-3)]Man(b1-4)GlcNAc(b1-4)GlcNAc
# Procedure, shortened: as §1
# [38] = target: Man(a1-3)[Man(a1-6)]Man(b1-4)GlcNAc(b1-4)GlcNAc
# Procedure, shortened: as §1
# [39] = target: Man(a1-6)Man
# Procedure, shortened: as §1
# [40] = target: Man(b1-4)GlcNAc
# Procedure, shortened: as §1
# [41] = target: Neu5Ac(a2-3)Gal
# Procedure, shortened: as §1
# [42] = target: Neu5Ac(a2-3)Gal(b1-3)GalNAc
# Procedure, shortened: as §1
# [43] = target: Neu5Ac(a2-3)Gal(b1-3)GalNAc(b1-3)Gal(a1-4)Gal(b1-4)Glc
# Procedure, shortened: as §1
# [44] = target: Neu5Ac(a2-3)Gal(b1-3)GalNAc(b1-4)[Neu5Ac(a2-3)]Gal(b1-4)Glc
# Procedure, shortened: as §1
# [45] = target: Neu5Ac(a2-3)Gal(b1-3)GalNAc(b1-4)[Neu5Ac(a2-8)Neu5Ac(a2-3)]Gal(b1-4)Glc
# Procedure, shortened: as §1
binder,measurement,setting,value
B1,glycan array binding signal (z-score),[1],-0.15
same,glycan array binding signal (z-score),[2],-0.114
same,glycan array binding signal (z-score),[3],-0.14
same,glycan array binding signal (z-score),[4],-0.121
same,glycan array binding signal (z-score),[5],-0.118
same,glycan array binding signal (z-score),[6],-0.114
same,glycan array binding signal (z-score),[7],-0.138
same,glycan array binding signal (z-score),[8],-0.143
same,glycan array binding signal (z-score),[9],-0.102
same,glycan array binding signal (z-score),[10],-0.123
same,glycan array binding signal (z-score),[11],-0.147
same,glycan array binding signal (z-score),[12],-0.153
same,glycan array binding signal (z-score),[13],-0.153
same,glycan array binding signal (z-score),[14],-0.172
same,glycan array binding signal (z-score),[15],-0.133
same,glycan array binding signal (z-score),[16],-0.143
same,glycan array binding signal (z-score),[17],-0.132
same,glycan array binding signal (z-score),[18],-0.162
same,glycan array binding signal (z-score),[19],-0.14
same,glycan array binding signal (z-score),[20],-0.153
same,glycan array binding signal (z-score),[21],-0.149
same,glycan array binding signal (z-score),[22],-0.117
same,glycan array binding signal (z-score),[23],-0.144
same,glycan array binding signal (z-score),[24],-0.11
same,glycan array binding signal (z-score),[25],3.53
same,glycan array binding signal (z-score),[26],7.75
same,glycan array binding signal (z-score),[27],0.004
same,glycan array binding signal (z-score),[28],1.63
same,glycan array binding signal (z-score),[29],12.7
same,glycan array binding signal (z-score),[30],2.82
same,glycan array binding signal (z-score),[31],5.4
same,glycan array binding signal (z-score),[32],9.9
same,glycan array binding signal (z-score),[33],8.33
same,glycan array binding signal (z-score),[34],-0.137
same,glycan array binding signal (z-score),[35],1.34
same,glycan array binding signal (z-score),[36],-0.133
same,glycan array binding signal (z-score),[37],0.15
same,glycan array binding signal (z-score),[38],-0.119
same,glycan array binding signal (z-score),[39],-0.129
same,glycan array binding signal (z-score),[40],-0.177
same,glycan array binding signal (z-score),[41],-0.14
same,glycan array binding signal (z-score),[42],-0.069
same,glycan array binding signal (z-score),[43],-0.112
same,glycan array binding signal (z-score),[44],-0.097
same,glycan array binding signal (z-score),[45],-0.141
